# Laboratory results as given in paper PMC4242493.
# The other results are listed elsewhere or left out. The list includes weakly bound sequences.
# Target: MaxL homodimer (UniProt P61244)
# Experiment: universal protein-binding microarray (PBM)
# Conditions: PBS-based mixture, 10 nM His-tagged protein dimer, 2% milk, 200 ng/uL BSA, 50 ng/uL salmon testes DNA, 0.02% TX-100; detection with Alexa 488 anti-His …; high values mean tight binding; most listed sequences are background and not binding sites; double strand, one strand shown
# Sequence of UniProt P61244 (P61244 whole entry): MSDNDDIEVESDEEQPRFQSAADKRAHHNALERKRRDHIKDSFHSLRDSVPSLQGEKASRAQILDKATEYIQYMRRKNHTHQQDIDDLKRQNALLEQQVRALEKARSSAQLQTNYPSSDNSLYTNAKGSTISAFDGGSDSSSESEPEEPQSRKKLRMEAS
row,Sequence,binding signal (normalized occupancy)
1,CATGCAAC,0.0893
2,ATCGTGAG,0.0769
3,ATATATCC,0.0888
4,CAATATAG,0.076
5,GCTACTCA,0.0648
6,GCCATACC,0.0836
7,ACAGTCTG,0.0756
8,TGAATCAA,0.0815
9,TACACCCA,0.077
10,AGTGGGCG,0.0747
11,CACGTAGA,0.0865
12,GGGTCTAA,0.0755
13,TTTCAAAA,0.0743
14,AATTTGAC,0.0715
15,CATCAAAC,0.0788
16,AGCACGAA,0.0827
17,CCTCGATA,0.0765
18,AGACACTC,0.0698
19,AGCCGACC,0.0705
20,AGGATCCC,0.0724
21,ATAGAGCG,0.0749
22,ATTATTAA,0.0774
23,ACCATCCT,0.0757
24,CGCCGCTA,0.0672
25,CGAGCGCA,0.0729

row,Sequence,binding signal (normalized occupancy)
1,ATATGCCA,0.0822
2,ATGAAAAG,0.0797
3,AAAATGTT,0.0725
4,CGATGCTA,0.073
5,ACCCAGGT,0.0767
6,ATATCTGA,0.0769
7,CGATTCAG,0.0701
8,ATACGACG,0.0796
9,AGGAATTA,0.077
10,CCTAGGTC,0.0677
11,ACCTCAGG,0.0672
12,ATCTACTG,0.0742
13,ATCGACCA,0.0759
14,GTGAGTAA,0.0776
15,GATCTCGC,0.0728
16,CCGGGTTC,0.0659
17,ACTGACAC,0.0735
18,AGTCCAAT,0.0739
19,AGGCGACT,0.0729
20,AGATCCGC,0.0757
21,CTCTGATC,0.071
22,ATTATAAA,0.0757
23,GAGCCTCC,0.0717
24,ACTGCTAC,0.079
25,CCTCGAGA,0.0756

row,Sequence,binding signal (normalized occupancy)
1,CAGCATCG,0.0732
2,CACTCCCG,0.0732
3,CAAGTTCG,0.0733
4,ATTAACCG,0.0734
5,CGCACTTC,0.0764
6,GGTACAAA,0.0739
7,GTGCTAGA,0.0825
8,GATGTTCC,0.0807
9,ACCGATGG,0.074
10,TAGTACTA,0.0709
11,AAGCTCGG,0.0686
12,AATCAAAA,0.0706
13,AAATGTTG,0.0794
14,ACTGCCAA,0.0746
15,CCGAGTCG,0.067
16,GGAATTGA,0.0755
17,AGTCATCA,0.0755
18,ATCTCCAC,0.0773
19,AACCGAAT,0.0773
20,ACGGCTGA,0.0705
21,CTCGCGTC,0.0784
22,CAGACCAG,0.0695
23,AAACAAAC,0.0713
24,TGCCTGAA,0.0733
25,CCTGAACA,0.0792

row,Sequence,binding signal (normalized occupancy)
1,ATAGCGAT,0.0756
2,GATGGTTA,0.0778
3,GAGAGATC,0.0806
4,AACAGAAC,0.075
5,CATGTGGA,0.157
6,CGATGTAA,0.0729
7,ACTGCAGG,0.0684
8,GTTTCTTA,0.0733
9,CAACCCCG,0.0737
10,CCTGGACA,0.0774
11,GGTCCCAA,0.0719
12,ATAAAAAG,0.0796
13,ATAAGTGA,0.0765
14,ACTCAGGC,0.075
15,CCCACAGG,0.0736
16,ATTTTTGG,0.074
17,AATGAGCG,0.0753
18,CTACACCA,0.0787
19,CACAGAAA,0.0694
20,ATGCTTGG,0.0811
21,GAGAGGCA,0.0736
22,GCTGCCGA,0.0651
23,GAGTTGAA,0.0697
24,CTGCGTCA,0.0709
25,AGCGTTCC,0.0728

row,Sequence,binding signal (normalized occupancy)
1,AACGCACT,0.0741
2,AAGTTCGG,0.0656
3,AGCCTCCC,0.0713
4,AGGTGGAA,0.0722
5,ATACCATG,0.0891
6,CGCTAGTC,0.0696
7,ACTGAGCA,0.0734
8,ACATAAAG,0.0761
9,AATGGTTC,0.0736
10,AAATTTAG,0.0709
11,ACAGGGCG,0.0749
12,AGGCTCCC,0.0678
13,CCGGCCAC,0.07
14,CTCATGAG,0.0946
15,AGAGGATA,0.0778
16,CAACGCAG,0.0711
17,ACGGTCCC,0.0698
18,ACTGCTAG,0.0657
19,CTCCCAAC,0.0733
20,AGAACCAT,0.0758
21,CGATACCA,0.074
22,CTAGCGAC,0.0684
23,CGTTAATC,0.0776
24,CAGGTGGA,0.0861
25,AAGCCGAG,0.0678

row,Sequence,binding signal (normalized occupancy)
1,AGAGTAGA,0.0773
2,CTGAAAGC,0.077
3,AAATGTAT,0.0812
4,TCTCCAAA,0.0803
5,AGCTATCG,0.0727
6,GTGGTGGA,0.0781
7,CAAAGGAC,0.071
8,CAAGACGA,0.0663
9,CTCTGTGA,0.0724
10,CAGTCGCG,0.071
11,AGACAGGC,0.0706
12,AAACGTGA,0.099
13,ATAGAACG,0.0822
14,CATGAGGC,0.109
15,CCGTTAGA,0.0774
16,CGAGCCCA,0.0685
17,GCCATGGC,0.0823
18,CAATCCAG,0.0696
19,CGCTAGCA,0.0683
20,CACAGCAC,0.0807
21,CTGATATC,0.0798
22,ACAGAACC,0.0709
23,AAGTGGGC,0.0709
24,CCGCGGAC,0.0649
25,TATCGGGA,0.0777

row,Sequence,binding signal (normalized occupancy)
1,AGACCGCC,0.0762
2,ATTAGATC,0.0788
3,AATACTCC,0.0791
4,AGAAATCC,0.0744
5,GTAACTCA,0.0757
6,GTCTCTGA,0.0723
7,AACAACAA,0.0753
8,AGCAGCTG,0.075
9,CCAACAGC,0.0701
10,TGATAGCA,0.0855
11,ATGCTATC,0.081
12,CGATCTAA,0.0754
13,GGGAACGA,0.0803
14,GCTAATAA,0.0758
15,AGTGAAGG,0.0765
16,ATCAACCA,0.0763
17,CAAGCGTA,0.0693
18,CGTCCCGC,0.0716
19,GCAGATCA,0.0828
20,ATCACTGG,0.0746
21,CAATAGCA,0.0786
22,CGAGTAAG,0.0704
23,AACCGTCG,0.0702
24,TAGATACA,0.0837
25,CTGTTGCA,0.0748

row,Sequence,binding signal (normalized occupancy)
1,CGTTTTGA,0.074
2,ACCCCTCA,0.0844
3,CTCGTGAC,0.104
4,AATTCTCG,0.0745
5,GCGATTAC,0.0679
6,ATCTGCCG,0.0719
7,CATTGATC,0.0827
8,GGAAGCAA,0.0714
9,AGTATAAC,0.0795
10,ATCGATCA,0.0769
11,GAGAACTA,0.0732
12,GCAACTCA,0.0733
13,CGTGCCCA,0.0858
14,GGACGGCC,0.0678
15,CGCGCGGC,0.0872
16,CACGAACC,0.075
17,ACTCGGTG,0.0736
18,CAGCGTGC,0.118
19,ACTGCGCA,0.0752
20,CCTACATC,0.0782
21,GACTTCGC,0.0743
22,AGAATGGA,0.0768
23,ATCAGACC,0.0809
24,ATCTTCTG,0.075
25,TCGTGACA,0.0851

row,Sequence,binding signal (normalized occupancy)
1,GTACTTCA,0.0757
2,CGCGGTCA,0.077
3,CAACTATG,0.0846
4,ACGCCGCT,0.0763
5,GGTCATTA,0.0819
6,AATCTAGG,0.0746
7,CCACACAG,0.0788
8,GAATGCTC,0.0683
9,CTCCGAAA,0.0683
10,ACAGCAAT,0.0739
11,TCATGAGA,0.086
12,ACATGTCA,0.0911
13,AATAACAA,0.0746
14,ATACTCAC,0.0831
15,ACTGTAGA,0.0752
16,CGGATGGC,0.0731
17,AGTACCCC,0.0847
18,AAGGTGAT,0.0842
19,GGGTGCGA,0.0821
